Measurements as given in PubChem BioAssay AID488969 (Vanderbilt High Throughput Screening Facility, 2010).
Whole data set: some 110,000 compounds, median “z-score” near -0.1, cut for the highest 2% near 2. This is one part of the list.

Target: Metabotropic glutamate receptor 8 (Rattus norvegicus) (UniProt P70579)
Assay: mGluR8 Gi/Go-coupled signaling modulation – cell-based, rat, thallium flux, HTS, primary screen (AID 488969)
Conditions: HEK293 rat mGluR8, GIRK (G protein-gated inwardly rectifying potassium channel) thallium flux, FluoZin2; at 10 µM; stronger effect = higher value; submaximal glutamate (EC20) added with thallium

Chain of UniProt P70579 (P70579 whole entry, looked up): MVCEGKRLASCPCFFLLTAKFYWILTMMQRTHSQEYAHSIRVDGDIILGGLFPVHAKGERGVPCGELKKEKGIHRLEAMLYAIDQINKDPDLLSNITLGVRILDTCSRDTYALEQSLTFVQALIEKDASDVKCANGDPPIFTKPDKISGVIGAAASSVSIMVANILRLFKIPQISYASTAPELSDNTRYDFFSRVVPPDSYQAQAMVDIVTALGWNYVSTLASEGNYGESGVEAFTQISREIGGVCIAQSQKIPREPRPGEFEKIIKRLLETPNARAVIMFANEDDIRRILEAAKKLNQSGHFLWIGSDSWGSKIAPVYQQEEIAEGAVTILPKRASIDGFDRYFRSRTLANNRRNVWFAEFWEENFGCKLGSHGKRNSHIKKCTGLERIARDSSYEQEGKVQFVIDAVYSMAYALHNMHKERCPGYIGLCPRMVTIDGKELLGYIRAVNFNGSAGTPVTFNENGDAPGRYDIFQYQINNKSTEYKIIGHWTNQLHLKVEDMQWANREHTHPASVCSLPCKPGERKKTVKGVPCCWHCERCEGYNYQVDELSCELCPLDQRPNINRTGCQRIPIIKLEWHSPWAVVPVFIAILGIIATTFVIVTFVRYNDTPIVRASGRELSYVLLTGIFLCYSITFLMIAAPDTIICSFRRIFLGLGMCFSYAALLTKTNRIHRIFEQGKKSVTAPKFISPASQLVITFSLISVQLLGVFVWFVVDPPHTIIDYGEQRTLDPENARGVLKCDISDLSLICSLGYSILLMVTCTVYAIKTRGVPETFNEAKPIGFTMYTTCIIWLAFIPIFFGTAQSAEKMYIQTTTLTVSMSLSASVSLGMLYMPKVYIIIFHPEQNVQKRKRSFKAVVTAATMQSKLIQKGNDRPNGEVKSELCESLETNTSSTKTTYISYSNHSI

| SMILES | z-score |
| --- | --- |
| Cc1cc(C)c(-c2cc(NC(=O)COC(=O)c3ccc(C#N)cc3)n(-c3ccccc3)n2)cc1C | 0.345 |
| O=C(O)/C=C/c1cn(-c2ncc(C(F)(F)F)cc2Cl)c2ccccc12 | -0.0759 |
| CCCOc1ccc(-c2cn3ccccc3n2)cc1[N+](=O)[O-] | 0.152 |
| N#Cc1cn(CCCOc2ccccc2)c2ccccc12 | -0.17 |
| COC(=O)c1cc(NC(=O)C2CC=CCC2C(=O)O)cc(C(=O)OC)c1 (stereo not given) | 0.249 |
| NC1=NC2(CCCCC2)N(c2ccc(F)cc2)C(N)=N1 | -0.0907 |
| Fc1ccc(-c2nnc(CSc3nnc(-c4ccc5c(c4)OCO5)o3)o2)cc1 | 0.268 |
| COc1ccc(C)cc1NC(=O)CSc1nnc(-c2ccco2)n1N | -0.334 |
| CCN1CCN(C(=O)c2ccc(Sc3ccccc3Cl)c([N+](=O)[O-])c2)CC1 | 0.195 |
| CCCCn1c(SCC(N)=O)nc2ccc(N3CCOCC3)cc2c1=O | 1.29 |
| COC(=O)c1cccc(NS(=O)(=O)c2ccc(OC)c(OC)c2)c1C | -0.378 |
| Cc1cc(C)n(-c2nnc3n2N=C(c2ccccc2)CS3)n1 | -0.411 |
| CCc1nc2ccccc2c(NC(=O)CN2CCC(C)CC2)c1C | -0.409 |
| NC(=O)c1ccc(NC(=O)CCCN2C(=O)c3ccccc3C2=O)cc1 | -0.211 |
| Cc1ccccc1-n1nnnc1SCc1csc(-c2ccccc2)n1 | -0.0982 |
| O=C(COc1ccc(Cl)cc1)N1CCN(c2ccc([N+](=O)[O-])c(N3CCCCC3)c2)CC1 | -0.692 |
| COc1cccc2c1OC1(C)CC2N(C(=O)c2ccco2)C(=S)N1c1ccc(F)cc1 (stereo not given) | -0.086 |
| COc1ccc(NC(=O)CCc2nc(-c3ccc(C)cc3)no2)c(OC)c1 | 0.634 |
| O=C(COC(=O)c1ccncc1)Nc1cc(Cl)c(Cl)cc1Cl | 0.0314 |
| COc1cc2c(cc1OC)CN(C(=O)c1cccs1)CC2 | 0.142 |
| CCC(=O)Nc1c(S(=O)(=O)c2ccc(C)cc2)c2nc3ccccc3nc2n1C(C)c1ccccc1 (stereo not given) | -0.22 |
| CCOC(=O)C1CCN(c2c(N3CCCCCC3)c(=O)c2=O)CC1 | 0.444 |

| SMILES | z-score |
| --- | --- |
| COC(=O)c1ccc(CN2C(=O)NC3(CCC(C)CC3)C2=O)o1 (stereo not given) | 0.988 |
| CC1CC1c1ccc(/C=C(\C#N)C(=O)Nc2ccc(Cl)cc2Cl)o1 (stereo not given) | -0.0179 |
| Cc1nc(NC(=O)c2cc3c(s2)CCCCC3)sc1C(=O)N(C)C | -0.848 |
| COc1ccc(CCNc2oc(Cc3cccc4ccccc34)nc2C#N)cc1OC | 0.0449 |
| Cc1ccc(S(=O)(=O)N/N=C/c2c(C)nn(-c3ccccc3)c2C)cc1 | -0.215 |
| Cc1nc2cc(C(=O)OCC(=O)N(CC(C)C)C3CCS(=O)(=O)C3)ccc2n1-c1ccccc1 (stereo not given) | -0.459 |
| CCOC(=O)N1CCN(C(=O)Nc2ccc3oc(C)nc3c2)CC1 | -0.0428 |
| CCCc1nc(NCc2ccccn2)c2nnn(Cc3ccccc3F)c2n1 | -0.45 |
| COc1ccc(OCC(O)CN2C(=O)NC(C)(C)C2=O)cc1 (stereo not given) | -0.716 |
| O=C(Oc1c(Cl)cc(Cl)c2cccnc12)c1cccs1 | 2.7 |
| COc1ccc(C(C(=O)NC2CCCCC2)N(C(=O)c2sc(C)nc2C)c2ccc(C(C)=O)cc2)cc1 (stereo not given) | 0.0467 |
| Cn1nc(-c2ccccc2)c(CSc2ccccc2Cl)c1Cl | -0.141 |
| NC(=O)c1ccccc1N/C=C/C(=O)c1ccccc1 | 0.167 |
| COc1ccc(C2(C(=O)Nc3ccc(S(=O)(=O)Nc4nc(C)cc(C)n4)cc3)CCCC2)cc1OC | -0.623 |
| COc1ccc(C(=O)CSc2nnc(CN3CCCCC3)n2-c2ccc(F)cc2)cc1 | 0.202 |
| Cc1cc(C)nc(N2CCC(C(=O)NCc3cccs3)CC2)n1 | 0.392 |
| Cc1ccc(S(=O)(=O)Oc2ccc(C3C4=C(CCCC4=O)OC4=C3C(=O)CCC4)cc2)cc1 | -0.134 |
| C=CCSC1=C(C#N)C(c2ccc(C(C)C)cc2)CC(=O)N1 (stereo not given) | 0.801 |
| CCOc1cccc(/C(O)=C2/C(=O)C(=O)N(Cc3ccco3)C2c2ccncc2)c1 (stereo not given) | -0.185 |
| CCn1ncc(Cl)c1C(=O)Nc1ccncc1 | -0.171 |
| Cc1ccc(-c2n[nH]c(=S)n2/N=C/C=C\c2ccccc2[N+](=O)[O-])cc1 | 0.22 |
| COCCNC(=O)C1CC(c2cccc([N+](=O)[O-])c2)=NO1 (stereo not given) | 0.0419 |

| SMILES | z-score |
| --- | --- |
| CC(=O)c1cc2c(cc1NC(=O)c1c(-c3ccccc3)noc1C)OCO2 | -0.49 |
| Cc1ccc(N(CC(O)Cn2c3ccccc3c3ccccc32)S(C)(=O)=O)c(C)c1 (stereo not given) | -0.0609 |
| O=C(COC(=O)c1sc2ccccc2c1Cl)NCC1CCCCC1 | -0.194 |
| CCOC(=O)CCc1c(C)c2ccc(OCc3cc([N+](=O)[O-])ccc3OC)cc2oc1=O | 0.15 |
| CC(C)(C)n1nnnc1CN1CCN(C2CCCC2)CC1 | -0.495 |
| O=C(O)c1cc(Cl)ccc1NC(=O)C1CCCO1 (stereo not given) | -0.0571 |
| O=C(CNC(=O)c1ccc([N+](=O)[O-])cc1)N/N=C\c1ccc(OC(=O)c2ccccc2)cc1 | 0.0901 |
| O=C(Cc1ccc(Cl)cc1)NCCCn1ccnc1 | -0.134 |
| CCC(C)c1ccc(OCCN2CCCC2)cc1 (stereo not given) | 0.208 |
| O=C(CN1C(=O)C2CC=CCC2C1=O)NCc1ccc2c(c1)OCO2 (stereo not given) | -0.142 |
| Cn1c(=O)c2[nH]c(CN3CCN(Cc4ccccc4)CC3)nc2n(C)c1=O | -0.0138 |
| O=C(NCC1CCCO1)c1ccc(NC(=O)C2CCCCC2C(=O)O)cc1 (stereo not given) | 0.533 |
| Brc1ccc2c(c1)C(c1ccc(N3CCOCC3)cc1)=NNC(c1cccs1)=N2 | -0.0732 |
| COc1ccccc1OC(=O)C1CC(=O)N(c2ccc(Cl)cc2)C1 (stereo not given) | -1.67 |
| O=C(NCc1ccncc1)c1cccc(Cn2cc(Br)cn2)c1 | -0.499 |
| CCCc1cc(=O)[nH]c(SCCOc2ccc(Cl)cc2)n1 | 0.253 |
| O=C(O)c1cc(NC(=O)C2CCCO2)cc(NC(=O)C2CCCO2)c1 (stereo not given) | -0.51 |
| O=C1c2ccccc2C(=O)N1Cc1cc(-c2ccccc2)no1 | -0.334 |
| CCN1CCN(C2=NC(=O)/C(=C/c3ccc(C)o3)S2)CC1 | 0.0216 |
| C(=N/N1CCN(c2ccccc2)CC1)/c1cccs1 | -0.201 |
| O=C(O)[C@H]1CCCC[C@H]1C(=O)NCCc1ccccc1 | 0.402 |
| COc1ccc(OC)c(NC(=O)C(=O)NCc2ccncc2)c1 | -0.232 |

| SMILES | z-score |
| --- | --- |
| Cc1cccc(CSc2ccc3nnc(-c4cccs4)n3n2)c1 | -0.315 |
| Cc1ccc2sc(C)[n+](CCC(C)S(=O)(=O)[O-])c2c1 (stereo not given) | -0.433 |
| O=C(CC(=O)c1ccccc1)Nc1cccnc1Cl | -0.127 |
| COC(=O)Cn1cccc1C(=O)c1ccccc1 | 0.887 |
| CCc1ccc(NC(=O)CCN2C(=O)c3cccnc3C2=O)cc1 | 0.184 |
| CCC(CC)C(=O)NCCCCc1ccccc1 | -0.508 |
| CC1CCCCC1NC(=O)NC(=O)CCl (stereo not given) | 0.0149 |
| CC1(C)CCCC(C)(C)N1CC(O)COCCOc1ccc(Br)cc1 (stereo not given) | 1.04 |
| CCCNc1nc(N2CCOCC2)nc(N2CCOCC2)n1 | -0.0765 |
| O=C(CSc1ccc(-c2ccccc2)nn1)N1CCN(c2ccccc2)CC1 | -0.171 |
| COc1ccccc1CNC(=O)c1cccc(C)c1[N+](=O)[O-] | -0.24 |
| OC(COc1ccc2ccccc2c1)Cn1cncn1 (stereo not given) | 0.189 |
| COc1cccc(-n2nc(C(=O)N3CC(C)CC(C)C3)c3ccccc3c2=O)c1 (stereo not given) | -0.198 |
| Cc1ccc(-c2nc(NC(=O)CSc3nnc(C)s3)ns2)cc1 | -0.118 |
| CCOC(=O)N1CCN(C(=O)c2cc(Cl)c(Cl)cc2C(=O)O)CC1 | -0.119 |
| CCn1c(-c2cccnc2)n[nH]c1=S | -0.235 |
| COc1cccc(-c2csc(N3CCN(C(=S)Nc4ccccc4)CC3)n2)c1 | 0.146 |
| COc1ccc(CN(C(=O)CSc2nnc(-c3ccccc3F)o2)c2ccc(F)cc2)cc1 | -0.681 |
| O=C(C1CCCN(c2nnc(-n3cccc3)s2)C1)N1CCN(c2ccccc2)CC1 (stereo not given) | -0.457 |
| CC(C)(C)S(=O)(=O)c1ccc(S(=O)(=O)C(C)(C)C)s1 | 2.32 |
| COc1ccc(OC)c(C2C(C(=O)c3sc(C)nc3C)=C(O)C(=O)N2CCN2CCOCC2)c1 (stereo not given) | -0.441 |
| CCCSc1nc(C)cc(C)c1C(N)=O | 0.484 |

| SMILES | z-score |
| --- | --- |
| CN1CCN(S(=O)(=O)c2ccc(N3CCN(S(=O)(=O)c4cccs4)CC3)nc2)CC1 | 0.377 |
| CCOc1ccc(-c2csc(C3COc4ccccc4O3)n2)cc1 (stereo not given) | -0.23 |
| Cc1cccc(C2(c3cccc(C)c3)OC(=O)c3ccccc32)c1 | 0.252 |
| COc1ccc(Cl)cc1N(C)C(=O)CCc1nc(-c2ccc(C)cc2)no1 | 0.139 |
| COc1ccc(Cl)cc1C(=O)Nc1ccc(S(=O)(=O)N2CCCC2)cc1 | -0.163 |
| CCCCNCc1cc(Cl)c(OCCC)c(OCC)c1 | 1.14 |
| CCC(c1nnnn1Cc1ccco1)N(CCN1CCOCC1)Cc1cc2cc(C)ccc2[nH]c1=O (stereo not given) | -0.764 |
| CN(c1cccc(NC(=O)Nc2cccc(Cl)c2)c1)S(C)(=O)=O | -1.05 |
| Cc1ccc(OCCCN2CCOCC2)c([N+](=O)[O-])c1 | -0.202 |
| Cn1c(=O)c2c(nc(NCCc3ccccc3)n2Cc2ccc(F)cc2)n(C)c1=O | -0.233 |
| COc1cc2cc(C(N)=O)c(N)nc2cc1OC | -0.0702 |
| COc1ccc(S(=O)(=O)Nc2cc3c4c(oc3c3ccccc23)CCCC4=O)cc1 | -0.141 |
| Cc1c(NC(=O)c2c(F)cccc2F)c(=O)n(-c2ccccc2)n1C | -0.117 |
| CCc1ccc(NC(=O)Cc2ccc(OC)cc2)cc1 | -0.203 |
| Cc1ccccc1OCC(O)CN1CCN(CCN2C(=O)c3cccc4cccc(c34)C2=O)CC1 (stereo not given) | 0.843 |
| C/C(=N\NC(=O)CSCc1cccc(Br)c1)c1ccc([N+](=O)[O-])cc1 | 0.0921 |
| COc1ccc(C)cc1NC(=O)CCCN1C(=S)NC(C)(C)CC1C (stereo not given) | -0.595 |
| CCOC(=O)c1cnc(SC)nc1Nc1cccc2ccccc12 | -0.0786 |
| CN(Cc1nc(-c2ccccn2)no1)S(=O)(=O)c1ccccc1 | 0.122 |
| CCCc1[nH]c(=O)c(C#N)c2c1COC(C)(C)C2 | 0.352 |
| Cn1nnnc1SCC(=O)N1CCN(C(c2ccccc2)c2ccccc2)CC1 | -0.46 |
| CC(CNC(=O)COc1ccccc1)OC(=O)Nc1cccc(Cl)c1 (stereo not given) | -0.268 |
